From the supplement of paper PMC10369915
The other results are listed elsewhere or left out. Rule as the data show it: active = 3.2 or more and inactive = the rest. Only a few entries rise above the background.

B1: CBL_Y368_YF (peptide)
chain: VTQEQYELFCE
B2: CASK_Y712 (peptide)
chain: QYKDKYLAKHN
B3: CARMIL1_Y637_A639G (peptide)
chain: MPIPMYDGSQA
B4: CASK_Y712_D710G (peptide)
chain: QYKGKYLAKHN
B5: CAT_Y386_Q387H (peptide)
chain: ARVANYHRDGP
B6: CAMK2A_Y230 (peptide)
chain: IKAGAYDFPSP
B7: CARD9_Y76_G72S (peptide)
chain: TSHKGYVAFLE
B8: CAMK2B_Y107_E110K (peptide)
chain: IVAREYYSKAD
B9: CBL_Y368_Q367P_YF (peptide)
chain: VTQEPYELFCE
B10: CBFB_Y96 (peptide)
chain: EAGKVYLKAPM
B11: CASD1_Y382 (peptide)
chain: IMAYFYMCDRA
B12: CAMKK2_Y183 (peptide)
chain: VVKLAYNENDN
B13: CASP5_Y103_T106A (peptide)
chain: EEKKKYYDAKI
B14: CASD1_Y382_R386S_YF (peptide)
chain: IMAFFYMCDSA
B15: CAP2_Y316_Y316C (peptide)
chain: TSPKSCPSQKH
B16: CAT_Y358_R363C (peptide)
chain: GRLFAYPDTHC
B17: CBL_Y368_Y371H (peptide)
chain: VTQEQYELHCE
B18: CAMKV_Y491_Y491C (peptide)
chain: EEAAGCAQESQ
B19: CASP5_Y104 (peptide)
chain: EKKKYYDTKIE
B20: CASQ2_Y179_YF (peptide)
chain: EDSEFYKAFEE
B21: CASP5_Y103_T106A_YF (peptide)
chain: EEKKKYFDAKI
B22: CAMKV_Y491 (peptide)
chain: EEAAGYAQESQ
B23: CBL_Y371_Y371H (peptide)
chain: EQYELHCEMGS
B24: CAMK2A_Y106_E109D (peptide)
chain: IVAREYYSDAD
B25: CAP2_Y316 (peptide)
chain: TSPKSYPSQKH
B26: CASQ2_Y178_YF (peptide)
chain: SEDSEYFKAFE
B27: CASP5_Y104_T106A (peptide)
chain: EKKKYYDAKIE
B28: CBFB_Y96_P100A (peptide)
chain: EAGKVYLKAAM
B29: CBL_Y371_Q367P (peptide)
chain: EPYELYCEMGS
B30: CAMK2A_Y106_E109D_YF (peptide)
chain: IVAREYFSDAD
B31: CAP2_Y316_T311A (peptide)
chain: ASPKSYPSQKH
B32: CAMK2B_Y107_E110K_YF (peptide)
chain: IVAREYFSKAD
B33: CASK_Y708_D710G_YF (peptide)
chain: KKKKQYKGKFL
B34: CASP5_Y104_YF (peptide)
chain: EKKKFYDTKIE
B35: CASP5_Y74 (peptide)
chain: VKMLEYLGKDV
B36: CAMK2A_Y106_YF (peptide)
chain: IVAREYFSEAD
B37: CARD11_Y970_R975W (peptide)
chain: LVRAFYCERRW

What follows are binders tested against SHP2 C-SH2 domain E139D (assay: enrichment score (SH2-bound / input frequency) (ratio); bacterial display of known human phosphotyrosine sites (pTyr-Var adds point mutants) read by sequencing; higher = stronger binding; tyrosines were phosphorylated by kinases first). Conditions: peptide library: pTyr-Var.
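Also: displayed peptides selected on beads carrying the immobilized SH2 domain, with library peptides lacking any tyrosine serving as negative controls.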

Row | Binder | enrichment score
1 | B1 | inactive: 0.598
2 | B2 | inactive: 1.16
3 | B3 | inactive: 0.895
4 | B4 | inactive: 1.18
5 | B5 | inactive: 0.656
6 | B6 | inactive: 0.701
7 | B7 | inactive: 0.838
8 | B8 | inactive: 1.2
9 | B9 | inactive: 0.827
10 | B10 | inactive: 0.582
11 | B11 | inactive: 1.37
12 | B12 | inactive: 0.925
13 | B13 | inactive: 0.707
14 | B14 | inactive: 2.96
15 | B15 | inactive: 0.713
16 | B16 | inactive: 0.952
17 | B17 | inactive: 0.963
18 | B18 | inactive: 0.569
19 | B19 | inactive: 0.693

Row | Binder | enrichment score
20 | B20 | inactive: 0.677
21 | B21 | inactive: 0.778
22 | B22 | inactive: 0.547
23 | B23 | inactive: 0.907
24 | B24 | inactive: 0.823
25 | B25 | inactive: 0.513
26 | B26 | inactive: 0.551
27 | B27 | inactive: 0.594
28 | B28 | inactive: 0.635
29 | B29 | inactive: 1.12
30 | B30 | inactive: 0.781
31 | B31 | inactive: 0.612
32 | B32 | inactive: 0.913
33 | B33 | inactive: 0.212
34 | B34 | inactive: 0.828
35 | B35 | inactive: 1.14
36 | B36 | inactive: 0.721
37 | B37 | inactive: 0.509

These binders were tested against SHP2 C-SH2 domain wild-type in the same assay as above. Conditions: peptide library: pTyr-Var.

Row | Binder | enrichment score
38 | B1 | inactive: 1.04
39 | B2 | inactive: 0.848
40 | B3 | inactive: 0.708
41 | B4 | inactive: 1.14
42 | B5 | inactive: 0.588
43 | B6 | inactive: 0.798
44 | B7 | inactive: 1.14
45 | B8 | inactive: 0.987
46 | B9 | inactive: 0.98
47 | B10 | inactive: 0.783
48 | B11 | inactive: 1.64
49 | B12 | inactive: 0.72
50 | B13 | inactive: 0.88
51 | B14 | inactive: 2.97
52 | B15 | inactive: 0.607
53 | B16 | inactive: 1.11
54 | B17 | inactive: 0.821
55 | B18 | inactive: 0.451
56 | B19 | inactive: 0.78

Row | Binder | enrichment score
57 | B20 | inactive: 0.639
58 | B21 | inactive: 0.8
59 | B22 | inactive: 0.531
60 | B23 | inactive: 0.639
61 | B24 | inactive: 0.884
62 | B25 | inactive: 0.366
63 | B26 | inactive: 0.658
64 | B27 | inactive: 0.703
65 | B28 | inactive: 0.746
66 | B29 | inactive: 1.01
67 | B30 | inactive: 0.685
68 | B31 | inactive: 0.578
69 | B32 | inactive: 0.738
70 | B33 | inactive: 0.489
71 | B34 | inactive: 0.72
72 | B35 | inactive: 0.991
73 | B36 | inactive: 0.974
74 | B37 | inactive: 0.332

Each binder was assayed against SHP2 N-SH2 domain L43F in the same assay as above. Conditions: peptide library: pTyr-Var.

Row | Binder | enrichment score
75 | B1 | inactive: 0.665
76 | B2 | inactive: 0.833
77 | B3 | inactive: 0.792
78 | B4 | inactive: 1.32
79 | B5 | inactive: 0.608
80 | B6 | inactive: 0.775
81 | B7 | inactive: 0.915
82 | B8 | inactive: 1.27
83 | B9 | inactive: 0.957
84 | B10 | inactive: 0.867
85 | B11 | inactive: 1.47
86 | B12 | inactive: 0.763
87 | B13 | inactive: 0.567
88 | B14 | inactive: 2.64
89 | B15 | inactive: 0.69
90 | B16 | inactive: 0.856
91 | B17 | inactive: 0.55
92 | B18 | inactive: 0.425
93 | B19 | inactive: 0.632

Row | Binder | enrichment score
94 | B20 | inactive: 0.614
95 | B21 | inactive: 0.728
96 | B22 | inactive: 0.531
97 | B23 | inactive: 0.791
98 | B24 | inactive: 0.806
99 | B25 | inactive: 0.393
100 | B26 | inactive: 0.611
101 | B27 | inactive: 0.805
102 | B28 | inactive: 0.666
103 | B29 | inactive: 0.866
104 | B30 | inactive: 0.878
105 | B31 | inactive: 0.601
106 | B32 | inactive: 0.839
107 | B33 | inactive: 0.47
108 | B34 | inactive: 0.827
109 | B35 | inactive: 1.33
110 | B36 | inactive: 0.7
111 | B37 | inactive: 0.399

What follows are binders tested against SHP2 N-SH2 domain T42A in the same assay as above. Conditions: peptide library: pTyr-Var.

Row | Binder | enrichment score
112 | B1 | inactive: 0.693
113 | B2 | inactive: 0.645
114 | B3 | inactive: 0.739
115 | B4 | inactive: 1.21
116 | B5 | inactive: 0.567
117 | B6 | inactive: 0.68
118 | B7 | inactive: 0.762
119 | B8 | inactive: 0.689
120 | B9 | inactive: 0.675
121 | B10 | inactive: 0.748
122 | B11 | inactive: 1.31
123 | B12 | inactive: 0.786
124 | B13 | inactive: 1.11
125 | B14 | inactive: 2.36
126 | B15 | inactive: 0.576
127 | B16 | inactive: 0.927
128 | B17 | inactive: 0.639
129 | B18 | inactive: 0.436
130 | B19 | inactive: 0.624

Row | Binder | enrichment score
131 | B20 | inactive: 0.525
132 | B21 | inactive: 1.08
133 | B22 | inactive: 0.437
134 | B23 | inactive: 0.685
135 | B24 | inactive: 0.855
136 | B25 | inactive: 0.352
137 | B26 | inactive: 0.522
138 | B27 | inactive: 0.824
139 | B28 | inactive: 0.673
140 | B29 | inactive: 0.735
141 | B30 | inactive: 0.695
142 | B31 | inactive: 0.579
143 | B32 | inactive: 0.817
144 | B33 | inactive: 0.347
145 | B34 | inactive: 0.82
146 | B35 | inactive: 1.38
147 | B36 | inactive: 0.757
148 | B37 | inactive: 0.358

These binders were tested against SHP2 N-SH2 domain T52S in the same assay as above. Conditions: peptide library: pTyr-Var.

Row | Binder | enrichment score
149 | B1 | inactive: 0.651
150 | B2 | inactive: 1.08
151 | B3 | inactive: 0.761
152 | B4 | inactive: 1.08
153 | B5 | inactive: 0.606
154 | B6 | inactive: 0.734
155 | B7 | inactive: 1.13
156 | B8 | inactive: 1.08
157 | B9 | inactive: 0.671
158 | B10 | inactive: 0.809
159 | B11 | inactive: 1.4
160 | B12 | inactive: 1.03
161 | B13 | inactive: 0.601
162 | B14 | inactive: 2.21
163 | B15 | inactive: 0.619
164 | B16 | inactive: 1.06
165 | B17 | inactive: 0.631
166 | B18 | inactive: 0.56
167 | B19 | inactive: 0.743

Row | Binder | enrichment score
168 | B20 | inactive: 0.596
169 | B21 | inactive: 0.637
170 | B22 | inactive: 0.563
171 | B23 | inactive: 0.712
172 | B24 | inactive: 0.771
173 | B25 | inactive: 0.501
174 | B26 | inactive: 0.662
175 | B27 | inactive: 0.844
176 | B28 | inactive: 0.618
177 | B29 | inactive: 0.685
178 | B30 | inactive: 0.919
179 | B31 | inactive: 0.503
180 | B32 | inactive: 1.05
181 | B33 | inactive: 0.531
182 | B34 | inactive: 0.838
183 | B35 | inactive: 1.41
184 | B36 | inactive: 0.849
185 | B37 | inactive: 0.448

These binders were tested against SHP2 N-SH2 domain wild-type in the same assay as above. Conditions: peptide library: pTyr-Var.

Row | Binder | enrichment score
186 | B1 | inactive: 0.738
187 | B2 | inactive: 0.653
188 | B3 | inactive: 0.755
189 | B4 | inactive: 1.18
190 | B5 | inactive: 0.805
191 | B6 | inactive: 0.829
192 | B7 | inactive: 0.774
193 | B8 | inactive: 1.02
194 | B9 | inactive: 0.639
195 | B10 | inactive: 1.08
196 | B11 | inactive: 1.98
197 | B12 | inactive: 1.09
198 | B13 | inactive: 0.927
199 | B14 | active: 3.32
200 | B15 | inactive: 0.678
201 | B16 | inactive: 1.21
202 | B17 | inactive: 0.726
203 | B18 | inactive: 0.474
204 | B19 | inactive: 0.928

Row | Binder | enrichment score
205 | B20 | inactive: 0.581
206 | B21 | inactive: 1.3
207 | B22 | inactive: 0.327
208 | B23 | inactive: 0.849
209 | B24 | inactive: 0.826
210 | B25 | inactive: 0.414
211 | B26 | inactive: 0.919
212 | B27 | inactive: 1.05
213 | B28 | inactive: 0.819
214 | B29 | inactive: 0.957
215 | B30 | inactive: 0.937
216 | B31 | inactive: 0.456
217 | B32 | inactive: 1.06
218 | B33 | inactive: 0.566
219 | B34 | inactive: 0.886
220 | B35 | inactive: 1.16
221 | B36 | inactive: 0.828
222 | B37 | inactive: 0.311
